Measured values published in paper PMC12136788.
The other results are listed elsewhere or left out.

T1: UNK ZnF1-6 (called full-length) (human, UniProt Q9C0B0 30-357)
T1 sequence: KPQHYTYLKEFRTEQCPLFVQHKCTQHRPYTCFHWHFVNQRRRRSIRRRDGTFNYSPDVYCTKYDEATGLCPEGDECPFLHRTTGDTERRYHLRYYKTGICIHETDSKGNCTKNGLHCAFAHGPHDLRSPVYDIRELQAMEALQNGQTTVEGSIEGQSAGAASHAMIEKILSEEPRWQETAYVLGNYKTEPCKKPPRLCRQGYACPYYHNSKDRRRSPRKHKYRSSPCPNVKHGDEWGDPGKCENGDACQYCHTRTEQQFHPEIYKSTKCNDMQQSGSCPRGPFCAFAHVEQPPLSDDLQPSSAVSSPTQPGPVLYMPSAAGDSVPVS

B1: ENSG00000136451:be:win_2751|3pUTR|ENSG00000136451|bound_else_gene|NA|bound_elsewhere_windowed (ssRNA)
RNA: GGGAGUUCUACAGUCCGACGAUCCUUUGUGGUGUUUUCAGGGAGACAGCUGUCUGCAUUCCCUGUAGAAACCCAGCAAUGAUUAUGCACGUUGAGACAUGUGCUUUUUAUUUCUUAGCAAGAUAUUUUAUCUCUGUACAUAAACAACAGAGGAUUGAGCAUCA
B2: chr8:143707665:143708109:-|CDS|ENSG00000255181|control|control|control (ssRNA)
RNA: GGGAGUUCUACAGUCCGACGAUCGCGCGCCCAGCGCUGCGCCAAAGCCAUCGUCCGGCUGGACGAGCAGAACCGCGUGGACCUAGCGCAGAUCCACUGGCAGCGGGCGGAACUGGCCUCGCUCUACCACGGGCGCGAGGACGGCAACAGAGGAUUGAGCAUCA
B3: chr10:72011604:72011705:+|3pUTR|ENSG00000122863|msi1|FALSE|unique (ssRNA)
RNA: GGGAGUUCUACAGUCCGACGAUCCACCUGCCCGGAGACAGAGGGAGCAGCUGAGGCCUCUCUCCACUGGCCGCCAGCCUCCCUAGCACAAGGGGACCAUUCAGCAAUGAGUGUUUACUCAUGUUCUUUCUUGUUGAUGAGUUCCAACAGAGGAUUGAGCAUCA
B4: chr7:139045324:139045425:-|3pUTR|ENSG00000105939|msi1|total|mutant (ssRNA)
RNA: GGGAGUUCUACAGUCCGACGAUCAGUUCAAAACCGCUGUCAUGGCCCCAUGUGAUCUCUCCCUCCCCUACCCCUCUAUCAUUCCGUUUCUUCUGCGCAAGCCACUCUGGCUUCCUUUCAGUUUUGUGGUUCCCAUUUUCCGCUCAACAGAGGAUUGAGCAUCA
B5: chr5:91369659:91369760:-|3pUTR|ENSG00000113369|msi1|FALSE|bound_elsewhere (ssRNA)
RNA: GGGAGUUCUACAGUCCGACGAUCUCAGCAUUUUCCAAGGUACCAAGUGUACUUAUUUUGUUGUUGUUGUUGUUGUUGUAUUUUAGAAGGAAUUCAGCUCUGAUGUUUUUAAAGAAAACCAGCAUCUCUGAUGUUGCAACAUACCAACAGAGGAUUGAGCAUCA
B6: chr16:67098774:67098826:+|CDS_3pUTR|ENSG00000067955|msi1_unk|FALSE|overlapping (ssRNA)
RNA: GGGAGUUCUACAGUCCGACGAUCAGACCCUAGUCCUGGUUCCAAUUUAGGUGGUGGUGAUGACCUCAAACUUCGUUAAUUAAUAGCACAGCAGAUGUGUGCUGCCCAUCUUUACAUACACAUUGCUUCUAGUUGGCAGAAAUACAACAGAGGAUUGAGCAUCA
B7: ENSG00000092871:stop:overlap|stop_codon|ENSG00000092871|stop_codon|NA|stop_codon (ssRNA)
RNA: GGGAGUUCUACAGUCCGACGAUCCAGGCUUGGAACCAAGCUGCAAGUCCUGUGGGGCUCACUUUGCAAACACGGCCAGGAAGUAGUGCUCAAGAUCACAUAGUUAUUAAAUGACAGAGCCGGGAUUCAAACCCAGGUCCUUGACAACAGAGGAUUGAGCAUCA
B8: chr11:77702383:77702481:-|5pUTR_CDS|ENSG00000048649|msi1_unk|total|mutant (ssRNA)
RNA: GGGAGUUCUACAGUCCGACGAUCAUUUUCCGAGGAACAGAAAGAAAGUGAAAAGAUGAAAAGUGAGGAGCAGCCUAUGGAUUCCGAAAACCGUUCUACAGCCAAUGUUCCCGAAGAGACUACUGUGAAAAAAGAAAAAGAAGACAACAGAGGAUUGAGCAUCA
B9: ENSG00000120708:stop:overlap|stop_codon|ENSG00000120708|stop_codon|NA|stop_codon (ssRNA)
RNA: GGGAGUUCUACAGUCCGACGAUCCCCAGAGGUCUGUGCGACUAGCCCCUGUCUAUCAAAAGUUAUUAGAGAGGAUGAAGCAUUAGCUUGAAGCACUACAGGAGGAAUGCACCACGGCAGCUCUCCGCCAAUUUCUCUCAGAUUCAACAGAGGAUUGAGCAUCA
B10: chr19:37127587:37127689:+|CDS|ENSG00000197050|unk|FALSE|unique (ssRNA)
RNA: GGGAGUUCUACAGUCCGACGAUCUAUGCAUGUAAGGAAUGUGGGAAGGCCUUUACUCAAAGCUCACAACUUAUUUUACAUCAUAGAAUUCAUACUGGUGAAAAACCAUAUAAAUGUGAAGAAUGUGGGAAAGCCUUUAUUCGUCAACAGAGGAUUGAGCAUCA
B11: chrX:103676501:103676735:-|CDS|ENSG00000123562|unk|FALSE|unique (ssRNA)
RNA: GGGAGUUCUACAGUCCGACGAUCGGAGGUUAAAGUGAAGAUUCCUGAAGAAUUAAAACCAUGGCUUGUUGAGGACUGGGACUUAGUUACCAGGCAGAAGCAGCUGUUUCAACUCCCUGCCAAGAAAAAUGUAGAUGCAAUUCUCAACAGAGGAUUGAGCAUCA
B12: chr19:8065921:8066260:-|CDS|ENSG00000142449|control|control|control (ssRNA)
RNA: GGGAGUUCUACAGUCCGACGAUCCCUCUCACACCUGGGCCGGGCCGAGCGCAUCCUGGAGCUCCGGCCGGCCCUGGAGGGUCUAGAGGGCCGGAUCCGCUACGUCAUCGUCCGCGGAAACGAGCAAGGUUUCUUUCGCAUGCACAACAGAGGAUUGAGCAUCA
B13: chr10:17315694:17315795:-|3pUTR|ENSG00000148488|unk|total|mutant (ssRNA)
RNA: GGGAGUUCUACAGUCCGACGAUCCUUCUUCCUCCCUGUCCAUCCCACCCUCGUCCCCAGAAAAUUCCUAAUCUGUUUUUCUACCGACAUUUACAUUUUUACACUACCGACUGUUUACAUUUUUCCGAAUUUUAUAUAAAUGGACAACAGAGGAUUGAGCAUCA
B14: ENSG00000198589:be:win_6651|CDS|ENSG00000198589|bound_else_gene|NA|bound_elsewhere_windowed (ssRNA)
RNA: GGGAGUUCUACAGUCCGACGAUCUCUCAACACGAUAGCAGGACGGAGUUAUAAUGACUUAAAUCAGUAUCCAGUGUUUCCUUGGGUCAUCACUAAUUAUGAAUCAGAAGAACUGGAUCUUACCUUGCCCACCAACUUCAGAGACAACAGAGGAUUGAGCAUCA
B15: chr10:128108355:128108456:-|CDS|ENSG00000148773|msi1|total|mutant (ssRNA)
RNA: GGGAGUUCUACAGUCCGACGAUCAGUGGACACUCCAACAAGCACAAAGCAAUGGCCUAAGAGAAGUCUCAGGAAAGCAGAUGCCGAGGAAGAAUUCUCCGCACUCAGGAAACUAACACCAUCAGCAGGGAAAGCCAUGCUUACCAACAGAGGAUUGAGCAUCA
B16: chr17:57974666:57974767:-|CDS|ENSG00000136451|msi1|total|mutant (ssRNA)
RNA: GGGAGUUCUACAGUCCGACGAUCGAGCAUGAGAAGUCCAGUAAAUGUUUCAAGUGCAGUUAACAUAACCAGCCCAAUGAACACCGGGCAUCCUGUAACUAUAACCAGUCCAUUAUCCAUGACCUCUCCUUUAACACUCACUACCAACAGAGGAUUGAGCAUCA
B17: chr12:114680981:114681101:-|CDS|ENSG00000135111|unk|total|mutant (ssRNA)
RNA: GGGAGUUCUACAGUCCGACGAUCUAAAGUGAGAUGUUCUGGGCUGGAUAAAAAAGCCAAAUACAUUUUAUUGAUGGACAUUACCGCUGCUGAUGACUGUCGUUAUAAAUUUCACAAUUCUCGGUGGAUGGUGGCUGGUAAGGCCAACAGAGGAUUGAGCAUCA
B18: chr3:52829118:52829279:-|CDS|ENSG00000055955|control|control|control (ssRNA)
RNA: GGGAGUUCUACAGUCCGACGAUCGUGGACUCCAGGGUCUCAUCCCGAUUUGCCCACACGGUCGUCACCAGCCGAGUGGUCAAUAGGGCCAAUACUGUGCAGGAGGCCACCUUCCAGAUGGAGCUGCCCAAGAAAGCCUUCAUCCAACAGAGGAUUGAGCAUCA
B19: chr7:139306712:139306813:+|3pUTR|ENSG00000157741|msi1|FALSE|bound_elsewhere (ssRNA)
RNA: GGGAGUUCUACAGUCCGACGAUCAUCUGGGGCUUGCCCUUGGAUUUCACUUGUUAAACACCCUCAAACUUAAAAGAAGAAAAUAGAUCUCCAGCUGGUGAAAAUUUUGUGCCCCAAAUAAUAUAUUAAUCCAAGUCUACCAAGCAACAGAGGAUUGAGCAUCA
B20: chr3:15254852:15254953:-|3pUTR|ENSG00000131370|msi1|total|mutant (ssRNA)
RNA: GGGAGUUCUACAGUCCGACGAUCAAACUGUUAAUUCUGUCACAGCCUGUAUAUUUCCGUCAUUUGUAAAUCUCUUCAUACAACCGUGACUUCUUUUUUGACUGAUACAGUAUCUUAAUUACAAGGUUAUUUUGUACUUGUCUUCAACAGAGGAUUGAGCAUCA
B21: chr1:16399343:16399521:-|CDS|ENSG00000187144|control|control|control (ssRNA)
RNA: GGGAGUUCUACAGUCCGACGAUCGCUCUGCCCACAGCUGGACAAGAAGAUGGUCCGUAGGCAGCCGAGCAACCACUAUGCACUAGACCAGUGCACACCCCCUGGCCUGGAUCCUGACAUCCGCAGCCCCUUCUUCCAGUCAGGCAACAGAGGAUUGAGCAUCA
B22: chr6:107870184:107870285:-|3pUTR|ENSG00000025796|msi1|total|mutant (ssRNA)
RNA: GGGAGUUCUACAGUCCGACGAUCUAAUAUUUCCUAUAAAAGGGUGAAAGCAGUUUCUUUCUCUAUAACCUCAAUCACCAGUUCCGUGAGAGCCUUUCUUGGCAGGCAGGAGGCAGUGUCACUGAGGAUUUUUUUCAUUUACUUCAACAGAGGAUUGAGCAUCA

The binders below were run against T1, UNK ZnF1-6 (called full-length) (assay: nsRBNS (natural sequence RNA bind-n-seq); RBNS binding buffer (assumed for nsRBNS): 25 mM Tris pH 7.5, 150 mM KCl, 3 mM MgCl2, 0.01% Triton X-100, 500 ug/ml BSA, 20 U/ml SUPERase-In, 4 C; UNK is unkempt and MSI1 is Musashi-1; names of the RNAs are library labels; protein concentration not given here; high values mean tight binding).

Row | Binder | binding signal [enrichment R]
1 | B1 | 0.864
2 | B2 | 0.579
3 | B3 | 0.501
4 | B4 | 0.949
5 | B5 | 0.378
6 | B6 | 0.938
7 | B7 | 0.31
8 | B8 | 0.679
9 | B9 | 0.853
10 | B10 | 0.478
11 | B11 | 0.808
12 | B12 | 0.389
13 | B13 | 1.81
14 | B14 | 0.356
15 | B15 | 0.623
16 | B16 | 0.617
17 | B17 | 0.617
18 | B18 | 0.721
19 | B19 | 1.25
20 | B20 | 0.429
21 | B21 | 0.685
22 | B22 | 0.72
